Assay results from US11178870B2 (priority 2017, dated 2021).

Experiments:
Format in all cases: in vivo
[1] = system: Puccinia recondita; experiment: Test Example E: Brown rust on wheat; details: for Test E control value (brown rust on wheat): class of control value, Table 7; for Test E control value: Brown rust on wheat; for control value, Test E (brown rust on wheat): Table 7, Test E
[2] = system: Alternaia brassicicola; experiment: Test Example C: Alternaria sooty spot on cabbage; details: for Test C control value (Alternaria sooty spot on cabbage): class of control value, Table 7; for Test C control value: Alternaria sooty spot on cabbage; for control value, Test C (Alternaria sooty spot on cabbage): Table 7, Test C
[3] = system: Blumeria graminis f. sp. hordei; experiment: Test Example D: Powdery mildew on barley; details: for Test D control value (powdery mildew on barley): class of control value, Table 7; for Test D control value: Powdery mildew on barley; for control value, Test D (powdery mildew on barley): Table 7, Test D
[4] = system: Plasmopara viticola; experiment: Test Example G: Downy mildew on vine; details: for Test G control value (downy mildew on vine): 250 ppm spray, investigated 7 to 10 days after inoculation; for Test G control value (downy mildew on vine) / Test G control value: 2.5 ml/pot; for Test G control value: Downy mildew on vine, 250 ppm sprayed, 7 to 10 days after inoculation; for control value, Test G (downy mildew on vine): 250 ppm sprayed (2.5 ml/pot) before inoculation, assessed 7 to 10 days after inoculation
[5] = system: Botrytis cinerea; experiment: Test Example B: Gray mold on tomato; details: for Test B control value (gray mold on tomato): class of control value, Table 7; for Test B control value: Gray mold on tomato; for control value, Test B (gray mold on tomato): Table 7, Test B

## Cc1cnn(-c2ccc(=O)n(C)c2-c2ccc(F)cc2C)c1 [Compound 511]
[1]
  Test E control value (brown rust on wheat): L (L shows the control value of 50% or less)
[2]
  Test C control value (Alternaria sooty spot on cabbage): L (L shows the control value of 50% or less)
[3]
  Test D control value (powdery mildew on barley): H (H shows the control value more than 50%)
[4]
  Test G control value (downy mildew on vine): L (L shows the control value of 50% or less)
[5]
  Test B control value (gray mold on tomato): L (L shows the control value of 50% or less)

## CCn1c(-c2ccc(F)cc2C)c(-n2cc(Cl)cn2)ccc1=O [Compound 168]
[1]
  Test E control value: H (H shows the control value more than 50%)
[2]
  Test C control value: H (H shows the control value more than 50%)
[3]
  Test D control value: H (H shows the control value more than 50%)
[4]
  Test G control value: L (L shows the control value of 50% or less)
[5]
  Test B control value: L (L shows the control value of 50% or less)

## CCn1c(-c2c(F)cc(OC)cc2F)c(-c2cnco2)cc(Cl)c1=O [Compound 37]
[1]
  Test E control value: H (H shows the control value more than 50%)
[2]
  Test C control value: H (H shows the control value more than 50%)
[3]
  Test D control value: L (L shows the control value of 50% or less)
[4]
  Test G control value: L (L shows the control value of 50% or less)
[5]
  Test B control value: H (H shows the control value more than 50%)

## Nn1c(-c2c(F)cccc2F)c(-c2ccsc2Cl)cc(Br)c1=O [Compound 399]
[1]
  Test E control value (brown rust on wheat): H (H shows the control value more than 50%)
[2]
  Test C control value (Alternaria sooty spot on cabbage): L (L shows the control value of 50% or less)
[3]
  Test D control value (powdery mildew on barley): L (L shows the control value of 50% or less)
[4]
  Test G control value (downy mildew on vine): L (L shows the control value of 50% or less)
[5]
  Test B control value (gray mold on tomato): H (H shows the control value more than 50%)

## CCn1c(-c2ccc(F)cc2C)c(-n2cc(C)cn2)ccc1=O [Compound 367]
[1]
  control value, Test E (brown rust on wheat): L (L shows the control value of 50% or less)
[2]
  control value, Test C (Alternaria sooty spot on cabbage): H (H shows the control value more than 50%)
[3]
  control value, Test D (powdery mildew on barley): H (H shows the control value more than 50%)
[4]
  control value, Test G (downy mildew on vine): L (L shows the control value of 50% or less)
[5]
  control value, Test B (gray mold on tomato): L (L shows the control value of 50% or less)

## Nn1c(-c2c(F)cccc2F)c(-n2cc(F)cn2)cc(Br)c1=O [Compound 467]
[1]
  Test E control value (brown rust on wheat): L (L shows the control value of 50% or less)
[2]
  Test C control value (Alternaria sooty spot on cabbage): L (L shows the control value of 50% or less)
[3]
  Test D control value (powdery mildew on barley): L (L shows the control value of 50% or less)
[4]
  Test G control value (downy mildew on vine): L (L shows the control value of 50% or less)
[5]
  Test B control value (gray mold on tomato): H (H shows the control value more than 50%)

## Cn1c(-c2ccc(F)cc2Cl)c(-n2cc(Cl)cn2)ccc1=O [Compound 451]
[1]
  Test E control value (brown rust on wheat): H (H shows the control value more than 50%)
[2]
  Test C control value (Alternaria sooty spot on cabbage): H (H shows the control value more than 50%)
[3]
  Test D control value (powdery mildew on barley): H (H shows the control value more than 50%)
[4]
  Test G control value (downy mildew on vine): H (H shows the control value more than 50%)
[5]
  Test B control value (gray mold on tomato): L (L shows the control value of 50% or less)

## Cc1cnn(-c2cc(Br)c(=O)n(CC(F)F)c2-c2ccc(F)cc2Cl)c1 [Compound 344]
[1]
  control value, Test E (brown rust on wheat): H (H shows the control value more than 50%)
[2]
  control value, Test C (Alternaria sooty spot on cabbage): H (H shows the control value more than 50%)
[3]
  control value, Test D (powdery mildew on barley): H (H shows the control value more than 50%)
[4]
  control value, Test G (downy mildew on vine): H (H shows the control value more than 50%)
[5]
  control value, Test B (gray mold on tomato): H (H shows the control value more than 50%)

## CCn1c(-c2ccccc2OC)c(-n2ncc(C)c2Cl)cc(Br)c1=O [Compound 249]
[1]
  control value, Test E (brown rust on wheat): H (H shows the control value more than 50%)
[2]
  control value, Test C (Alternaria sooty spot on cabbage): H (H shows the control value more than 50%)
[3]
  control value, Test D (powdery mildew on barley): H (H shows the control value more than 50%)
[4]
  control value, Test G (downy mildew on vine): L (L shows the control value of 50% or less)
[5]
  control value, Test B (gray mold on tomato): H (H shows the control value more than 50%)

## CCn1c(-c2c(F)cc(F)cc2F)c(-n2nc(C)c(Cl)c2C)ccc1=O [Compound 95]
[1]
  Test E control value: L (L shows the control value of 50% or less)
[2]
  Test C control value: H (H shows the control value more than 50%)
[3]
  Test D control value: H (H shows the control value more than 50%)
[4]
  Test G control value: L (L shows the control value of 50% or less)
[5]
  Test B control value: H (H shows the control value more than 50%)

## CCn1c(-c2ccccc2C(F)(F)F)c(-n2cc(C)cn2)ccc1=O [Compound 372]
[1]
  Test E control value (brown rust on wheat): L (L shows the control value of 50% or less)
[2]
  Test C control value (Alternaria sooty spot on cabbage): L (L shows the control value of 50% or less)
[3]
  Test D control value (powdery mildew on barley): H (H shows the control value more than 50%)
[4]
  Test G control value (downy mildew on vine): H (H shows the control value more than 50%)
[5]
  Test B control value (gray mold on tomato): L (L shows the control value of 50% or less)

## CCn1c(-c2c(F)cc(OC)cc2F)c(-c2ocnc2Cl)cc(Cl)c1=O [Compound 115]
[1]
  Test E control value: H (H shows the control value more than 50%)
[2]
  Test C control value: H (H shows the control value more than 50%)
[3]
  Test D control value: L (L shows the control value of 50% or less)
[4]
  Test G control value: H (H shows the control value more than 50%)
[5]
  Test B control value: H (H shows the control value more than 50%)

## Cc1cnn(-c2cc(Br)c(=O)n(C)c2-c2ccc(F)cc2C)c1 [Compound 513]
[1]
  Test E control value (brown rust on wheat): H (H shows the control value more than 50%)
[2]
  Test C control value (Alternaria sooty spot on cabbage): H (H shows the control value more than 50%)
[3]
  Test D control value (powdery mildew on barley): L (L shows the control value of 50% or less)
[4]
  Test G control value (downy mildew on vine): L (L shows the control value of 50% or less)
[5]
  Test B control value (gray mold on tomato): L (L shows the control value of 50% or less)

## CCn1c(-c2ccc(F)cc2Cl)c(-c2cnco2)cc(Cl)c1=O [Compound 32]
[1]
  Test E control value: H (H shows the control value more than 50%)
[2]
  Test C control value: H (H shows the control value more than 50%)
[3]
  Test D control value: L (L shows the control value of 50% or less)
[4]
  Test G control value: L (L shows the control value of 50% or less)
[5]
  Test B control value: H (H shows the control value more than 50%)

## CCn1c(-c2c(F)cccc2F)c(-c2cnc(Cl)o2)cc(Cl)c1=O [Compound 87]
[1]
  Test E control value: L (L shows the control value of 50% or less)
[2]
  Test C control value: H (H shows the control value more than 50%)
[3]
  Test D control value: L (L shows the control value of 50% or less)
[4]
  Test G control value: L (L shows the control value of 50% or less)
[5]
  Test B control value: L (L shows the control value of 50% or less)

## CCn1c(-c2c(F)cc(OCOC)cc2F)c(-n2cc(Cl)cn2)cc(Cl)c1=O [Compound 203]
[1]
  control value, Test E (brown rust on wheat): H (H shows the control value more than 50%)
[2]
  control value, Test C (Alternaria sooty spot on cabbage): H (H shows the control value more than 50%)
[3]
  control value, Test D (powdery mildew on barley): H (H shows the control value more than 50%)
[4]
  control value, Test G (downy mildew on vine): L (L shows the control value of 50% or less)
[5]
  control value, Test B (gray mold on tomato): H (H shows the control value more than 50%)
